Where “and” joins values, the source holds several entries; their conditions need not be identical. Identical values can stand only once. About 5,700 (2.6%) of roughly 220,000 compounds were called active. This list was built around the results that the source calls inconclusive (neither active nor inactive); the mix of calls is not that of the screen. Calls come from the whole dose curve; as a rule, active = well fitted inhibition curve with a large enough effect; inconclusive = small, poorly fitted or top-dose-only effect; inactive = no such curve, though single readings can be large or run the other way. Potencies of inconclusive entries are doubtful fits and often do not repeat.
Molecular target: Lysine-specific demethylase 5B (Homo sapiens) (UniProt Q9UGL1)
Assay: Primary screen for KDM5B Histone Demethylases FDH-coupled qHTS; note: nearly all actives have a fitted effect of over 70% in size; for activity change, negative = inhibition: 0% is about no effect
Settings: FDH-coupled NADH fluorescence (FDH is formaldehyde dehydrogenase); activity change, negative = inhibition: at 57.7 µM (top of the series) unless noted
How it was run: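 Inhibition is measured as reduced NADH fluorescence generation from FDH coupling to formaldehyde release. Truncated KDM5BΔAP at 200 nM final acts on H3K4me3 peptide (12.5 µM in substrate mix) in pH 7.5 HEPES buffer with Tween-20, 30 min, room temperature.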
Potency is the fitted concentration of half-maximal effect; tags give direction and shape of the fitted curve.

UniProt Q9UGL1, sequence (Q9UGL1 whole entry, looked up): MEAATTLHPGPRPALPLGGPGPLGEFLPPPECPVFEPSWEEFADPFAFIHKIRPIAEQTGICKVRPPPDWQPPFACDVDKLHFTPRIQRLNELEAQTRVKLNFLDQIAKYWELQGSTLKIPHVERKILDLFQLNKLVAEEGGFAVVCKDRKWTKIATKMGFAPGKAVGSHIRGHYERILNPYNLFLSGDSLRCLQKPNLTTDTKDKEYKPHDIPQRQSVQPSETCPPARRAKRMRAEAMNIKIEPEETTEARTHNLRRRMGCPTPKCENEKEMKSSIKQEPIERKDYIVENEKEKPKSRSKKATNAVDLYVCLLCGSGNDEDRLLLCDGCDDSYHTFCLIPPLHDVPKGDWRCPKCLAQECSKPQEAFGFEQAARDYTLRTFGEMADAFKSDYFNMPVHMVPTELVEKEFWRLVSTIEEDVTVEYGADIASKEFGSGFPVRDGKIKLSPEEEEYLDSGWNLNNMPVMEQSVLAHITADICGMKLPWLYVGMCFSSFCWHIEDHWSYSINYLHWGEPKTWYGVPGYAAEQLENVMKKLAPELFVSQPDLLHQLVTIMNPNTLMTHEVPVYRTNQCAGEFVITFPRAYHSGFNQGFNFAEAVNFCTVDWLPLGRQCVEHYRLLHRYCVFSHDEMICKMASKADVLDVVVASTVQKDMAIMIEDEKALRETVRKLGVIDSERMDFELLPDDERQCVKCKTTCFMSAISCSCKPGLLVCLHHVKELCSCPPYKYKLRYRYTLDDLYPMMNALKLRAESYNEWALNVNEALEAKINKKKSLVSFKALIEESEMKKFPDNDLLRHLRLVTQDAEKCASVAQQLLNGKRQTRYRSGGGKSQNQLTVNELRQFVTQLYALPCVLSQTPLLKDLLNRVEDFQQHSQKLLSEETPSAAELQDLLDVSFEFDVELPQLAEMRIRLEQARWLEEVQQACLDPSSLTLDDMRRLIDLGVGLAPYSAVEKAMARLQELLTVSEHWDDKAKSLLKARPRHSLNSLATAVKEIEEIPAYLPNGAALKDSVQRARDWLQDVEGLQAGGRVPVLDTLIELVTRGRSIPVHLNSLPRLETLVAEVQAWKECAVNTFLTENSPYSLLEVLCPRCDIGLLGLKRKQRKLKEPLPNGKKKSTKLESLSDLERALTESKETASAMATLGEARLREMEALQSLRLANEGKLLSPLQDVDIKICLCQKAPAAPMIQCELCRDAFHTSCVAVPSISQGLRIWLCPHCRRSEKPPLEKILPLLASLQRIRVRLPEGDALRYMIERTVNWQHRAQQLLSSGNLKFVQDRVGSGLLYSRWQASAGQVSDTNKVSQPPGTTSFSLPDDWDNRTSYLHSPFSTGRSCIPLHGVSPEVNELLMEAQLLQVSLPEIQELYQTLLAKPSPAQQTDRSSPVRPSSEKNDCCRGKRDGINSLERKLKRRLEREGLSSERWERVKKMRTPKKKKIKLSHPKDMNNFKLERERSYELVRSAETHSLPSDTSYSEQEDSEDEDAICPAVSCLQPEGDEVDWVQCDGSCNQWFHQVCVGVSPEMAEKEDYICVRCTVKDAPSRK

Row | SMILES | Potency | activity change, negative = inhibition
1 | COc1ccc(S(=O)(=O)N2CC[C@H]3NC(=O)N(c4ccc(C(C)C)cc4)C(=O)[C@H]32)cc1 | inactive | 
2 | COc1cc(Nc2nc(N)c(C(=O)c3cc(C)ccc3C)s2)cc(OC)c1 | inactive | 
3 | CC(=O)NC(CO)C(=O)N1CCc2onc(-c3cccc4ccccc34)c2C1 (configuration not stated) | active: 31.6 µM | 
4 | COCCNc1ncccc1-c1noc([C@@H]2CCCN2C2CCN(C(C)=O)CC2)n1 | active: 35.5 µM | 
5 | O=C(Cn1ccn2nc(-c3ccccc3)c(CO)c2c1=O)Nc1cc(F)cc(F)c1 | inconclusive: 39.8 µM [inhibitor, partial curve, poor fit] | 
6 | CC(C)(C)CC(C)(C)NC(=O)C1CNC(=O)C1 (configuration not stated) | inactive | 
7 | CC1CCCN(c2csc3ccccc3c2=O)C1 (configuration not stated) | inconclusive: 35.5 µM [inhibitor, single point] | 
8 | CCOc1ccc(-c2nc(C3CC(=O)N(c4ccc(F)cc4)C3)no2)cc1OCC (configuration not stated) | inconclusive: 35.5 µM [inhibitor, single point] | 
9 | c1cc(CN2CCC(Oc3nccnc3N3CCOCC3)C2)ccn1 (configuration not stated) | inconclusive: 31.6 µM [inhibitor, partial curve, poor fit] | 
10 | COc1nccnc1NC1CCN(C(=O)c2cccs2)CC1 | active: 25.1 µM | 
11 | CN(C)C(=O)c1nc(-c2cccc(F)c2)c2cnccn12 | active: 35.5 µM | 
12 | CC(C)(C)C1CCc2[nH]nc(C(=O)N3CCc4nn(CC#N)c(=O)n4CC3)c2C1 (configuration not stated) | inconclusive: 5.62 µM [inhibitor, partial curve, poor fit] | 
13 | COc1ccc(C(=O)NCCn2cccc2-c2nc(-c3ccc4c(c3)OCO4)no2)cc1 | inconclusive: 39.8 µM [inhibitor, single point] | 
14 | COC(=O)C(C)OC(=O)c1cc2ccccc2cc1OC (configuration not stated) | inconclusive: 10 µM [inhibitor, single point] | 
15 | Cn1nnnc1C1CCCN(C(=O)CCC2CCCC2)C1 (configuration not stated) | inactive | 
16 | Cn1cnc2c1c(=O)n(CCCSc1nnc(-c3ccccc3)o1)c(=O)n2C | inactive | 
17 | CNC(=O)Nc1ccc(C)n(CC(=O)N2CCN(c3cc(C)ccc3C)CC2)c1=O | inconclusive: 22.4 µM [inhibitor, single point] | 
18 | Cc1noc(-c2cccn3c(CNC(=O)c4cccnc4)nnc23)n1 | active: 28.2 µM | 
19 | O=C(NCc1ccc(Cl)cc1Cl)C1CCCN(c2ncnc3nc[nH]c23)C1 (configuration not stated) | inactive | 
20 | CCc1ccc([S+](=O)([O-])c2nnn3c2nc(NCCCOC(C)C)c2ccccc23)cc1 | inconclusive: 3.55 µM [inhibitor, full curve, poor fit] | 
21 | O=C1COc2ccc(N3CCOCC3)nc2CN1CCOc1ccccc1 | inconclusive: 39.8 µM [inhibitor, partial curve, poor fit] | 
22 | COc1cccc(NC(=O)N[C@H]2[C@H](O)[C@@H](N3CCN(C)CC3)[C@@H]3OC[C@H]2O3)c1 | inconclusive: 35.5 µM [inhibitor, single point] | 
23 | NC(=O)C1(N)CCOCC1 | inactive | 

Row | SMILES | Potency | activity change, negative = inhibition
24 | CCOC(=O)c1cc(-c2ccccn2)nc2c1c(=O)[nH]c(=O)n2C | inconclusive: 2 µM [inhibitor, full curve, poor fit] | 
25 | CC(C)C(=O)Nc1ccc(C2(C(=O)N3CCCC3)CCCCC2)cc1 | inactive | 
26 | CCOC(=O)C(C)Oc1ccc2c(=O)c(-c3ccc4c(c3)OCCO4)c(C)oc2c1 (configuration not stated) | inactive | 
27 | COc1ccc(Nc2nnc(-c3ccc(C)c(S(=O)(=O)N4CCN(C)CC4)c3)c3ccccc23)cc1 | inconclusive: 39.8 µM [inhibitor, single point] | 
28 | Cc1nc2sccn2c(=O)c1S(=O)(=O)NCc1ccccc1 | inconclusive: 7.94 µM [inhibitor, partial curve, poor fit] | 
29 | COc1ccc(C(CNC(=O)c2ccc(Br)s2)N2CCCC2)cc1 (configuration not stated) | inactive | 
30 | CCOc1ccccc1C1CC(=O)NC(C)=C1C(=O)OCc1ccc(C)cc1 (configuration not stated) | inconclusive: 14.1 µM [inhibitor, partial curve, poor fit] | 
31 | CCOc1ccc(-n2ccn3c(SC(CC)C(=O)Nc4cc(C)ccc4C)nnc3c2=O)cc1 (configuration not stated) | inactive | 
32 | CCc1ccc(NC(=O)Cn2ccn(-c3cccc(Cl)c3)c(=O)c2=O)cc1 | inconclusive: 39.8 µM [inhibitor, single point] | 
33 | O=C1[C@@H]2[C@H]3CC[C@H](C3)[C@@H]2C(=O)N1O | inconclusive: 31.6 µM [inhibitor, partial curve, poor fit] | 
34 | COc1ccc(C(=O)NC2CCCN(c3cc(-c4ccccc4)[nH]n3)C2)cc1F (configuration not stated) | inconclusive: 5.62 µM [inhibitor, partial curve, poor fit] | 
35 | CN1CC(CO)C2(CCN(Cc3ccc(Cl)cc3)CC2)C1 (configuration not stated) | inactive | 
36 | CC(C)(C)C(=O)N1CCC2(CC1)CCN(Cc1cccs1)c1ccccc1O2 | inconclusive: 15.8 µM [inhibitor, partial curve] | 
37 | CC(=O)c1cccc(NC(=O)Cc2csc(-n3nc(C)c(Cc4ccccc4)c3C)n2)c1 | inactive | 
38 | CC1=C[C@@H](CN2CCN(CCO)CC2)[C@H](C(C)C)C[C@H]1Cc1nnc(-c2ccncc2)o1 | inactive | 
39 | CCOc1nccnc1NC1CCN(C(=O)NC)CC1 | active: 28.2 µM | 
40 | CCOc1cc(/C=C2\C(=O)Nc3ccccc32)ccc1OC(F)F | inactive | 
41 | Cc1ccc(C)c(C(=O)NCc2nnc3cc(-c4nc(C(C)C)no4)ccn23)c1 | active: 14.1 µM | 
42 | O=[S+]([O-])(Nc1ccccc1)c1ccc2c(c1)OCCN(Cc1nccs1)C2 | inconclusive: 35.5 µM [inhibitor, partial curve, poor fit] | 
43 | CCOC(=O)c1ccc(NC(=O)c2cc3c(=O)n(C)c4ccccc4c3n2C)cc1 | inconclusive: 8.91 µM [inhibitor, partial curve, poor fit] | 
44 | COc1ccc(OC)c(S(=O)(=O)N2CCN(C(=O)NC3CCCC3)CC2)c1 | inactive | 
45 | Cc1nc2ccccn2c(=O)c1NC(=O)c1ccccc1Cl | inconclusive: 39.8 µM [inhibitor, single point] | 
46 | CCOC(=O)C1C(=O)C=C(c2ccco2)CC1c1ccccc1 (configuration not stated) | inconclusive: 28.2 µM [inhibitor, partial curve, poor fit] | 

Row | SMILES | Potency | activity change, negative = inhibition
47 | COc1cccc(NC(=O)CCc2nc(-c3cc(OC)c(OC)c(OC)c3)no2)c1 |  | inconclusive: -37.5% [inhibitor]
48 | CCCN1Cc2ccccc2NC(=O)C12CCNC2 (configuration not stated) | inconclusive: 44.7 µM [inhibitor, partial curve, poor fit] | 
49 | Cn1nccc1C(=O)N1CC(c2ncc3c(-c4ccccc4)nccn23)C1 | inconclusive: 56.2 µM [inhibitor, single point] | 
50 | COc1ccccc1CNC(=O)Cn1c(-c2cccs2)cc2cc(F)ccc21 | inconclusive: 25.1 µM [inhibitor, partial curve, poor fit] | 
51 | CSc1ccc(CNc2cccc(C(=O)O)c2C)cc1 | inconclusive: 25.1 µM [inhibitor, single point] | 
52 | COC(=O)CSc1ccc2nnc(CCNS(=O)(=O)c3ccc(C)cc3)n2n1 | inconclusive: 25.1 µM [inhibitor, partial curve, poor fit] | 
53 | Brc1ccc(CN2CCC(c3nc4ncccc4[nH]3)C2)cc1 (configuration not stated) | inconclusive: 50.1 µM [inhibitor, partial curve, poor fit] and active: 20 µM | 
54 | CCc1cccc(C)c1Nc1c(-c2cccc(O)c2)nc2cnccn12 | inconclusive: 25.1 µM [inhibitor, partial curve, poor fit] and inconclusive: 22.4 µM [inhibitor, partial curve, poor fit] | 
55 | COc1ccc(C(=O)NCCn2ccn3nc(-c4ccc(C)cc4C)cc3c2=O)cc1F | inactive | 
56 | O=C(NCCc1ccccc1)c1nc(-c2ccc3[nH]ccc3c2)no1 | inactive | 
57 | COc1ccc(/C=C/c2nc(C#N)c(NC3CCCCC3)o2)cc1OC | inconclusive: 31.6 µM [inhibitor, partial curve, poor fit] and inconclusive: 14.1 µM [inhibitor, partial curve, poor fit] | 
58 | O=C(CCS(=O)(=O)c1cc2c3c(c1)CCN3C(=O)CC2)NCc1ccc(Cl)cc1 |  | inconclusive: -30.1% [inhibitor]
59 | CCCCSc1nnc(-c2c[nH]c3ccccc23)n1C1CC1 | inactive | 
60 | CCN(CC)Cc1cnc2c(C(=O)NC3CCC(O)CC3)cnn2c1 (configuration not stated) | inconclusive: 17.8 µM [inhibitor, partial curve, poor fit] | 
61 | N#Cc1nc(/C=C/c2cccs2)oc1NCCCn1ccnc1 | inconclusive: 28.2 µM [inhibitor, single point] | 
62 | CCc1noc(-c2cccn3c(CNC(=O)C4CCCCC4)nnc23)n1 | inconclusive: 7.08 µM [inhibitor, partial curve, poor fit] | 
63 | O=c1[nH]cccc1NS(=O)(=O)c1ccc(Cl)c(C(F)(F)F)c1 | inconclusive: 11.2 µM [inhibitor, partial curve, poor fit] | 
64 | Cc1ccc(S(=O)(=O)Nc2nc3ccccc3nc2Nc2cccc(Cl)c2)cc1 | inconclusive: 25.1 µM [inhibitor, partial curve, poor fit] | 
65 | COc1ccc(F)cc1C(C(=O)O)N1CCCN(c2ncccn2)CC1 (configuration not stated) | inconclusive: 25.1 µM [inhibitor, partial curve, poor fit] | 
66 | Cn1c([C@H]2CCN(C3CCOCC3)C2)nc2ccccc21 | inconclusive: 35.5 µM [inhibitor, partial curve] | 
67 | COC(=O)c1c(NC(=O)C(C)Oc2ccc(Cl)cc2Cl)sc2c1CCCC2 (configuration not stated) | inconclusive: 3.16 µM [inhibitor, partial curve, poor fit] | 
